Test results taken from publication PMC4336329 (PLoS ONE, 2015).
Screen size: about 310,000 compounds; about 2,200 (0.71%) showed an effect of 50% or more. The effect is printed as a negative number. The list shows a part of the results.

biological target: human ether-à-go-go-related gene (hERG) potassium channel (human, UniProt Q12809); test: primary screen, population patch clamp on CHO cells stably expressing hERG
Sequence (Q12809 whole entry, looked up): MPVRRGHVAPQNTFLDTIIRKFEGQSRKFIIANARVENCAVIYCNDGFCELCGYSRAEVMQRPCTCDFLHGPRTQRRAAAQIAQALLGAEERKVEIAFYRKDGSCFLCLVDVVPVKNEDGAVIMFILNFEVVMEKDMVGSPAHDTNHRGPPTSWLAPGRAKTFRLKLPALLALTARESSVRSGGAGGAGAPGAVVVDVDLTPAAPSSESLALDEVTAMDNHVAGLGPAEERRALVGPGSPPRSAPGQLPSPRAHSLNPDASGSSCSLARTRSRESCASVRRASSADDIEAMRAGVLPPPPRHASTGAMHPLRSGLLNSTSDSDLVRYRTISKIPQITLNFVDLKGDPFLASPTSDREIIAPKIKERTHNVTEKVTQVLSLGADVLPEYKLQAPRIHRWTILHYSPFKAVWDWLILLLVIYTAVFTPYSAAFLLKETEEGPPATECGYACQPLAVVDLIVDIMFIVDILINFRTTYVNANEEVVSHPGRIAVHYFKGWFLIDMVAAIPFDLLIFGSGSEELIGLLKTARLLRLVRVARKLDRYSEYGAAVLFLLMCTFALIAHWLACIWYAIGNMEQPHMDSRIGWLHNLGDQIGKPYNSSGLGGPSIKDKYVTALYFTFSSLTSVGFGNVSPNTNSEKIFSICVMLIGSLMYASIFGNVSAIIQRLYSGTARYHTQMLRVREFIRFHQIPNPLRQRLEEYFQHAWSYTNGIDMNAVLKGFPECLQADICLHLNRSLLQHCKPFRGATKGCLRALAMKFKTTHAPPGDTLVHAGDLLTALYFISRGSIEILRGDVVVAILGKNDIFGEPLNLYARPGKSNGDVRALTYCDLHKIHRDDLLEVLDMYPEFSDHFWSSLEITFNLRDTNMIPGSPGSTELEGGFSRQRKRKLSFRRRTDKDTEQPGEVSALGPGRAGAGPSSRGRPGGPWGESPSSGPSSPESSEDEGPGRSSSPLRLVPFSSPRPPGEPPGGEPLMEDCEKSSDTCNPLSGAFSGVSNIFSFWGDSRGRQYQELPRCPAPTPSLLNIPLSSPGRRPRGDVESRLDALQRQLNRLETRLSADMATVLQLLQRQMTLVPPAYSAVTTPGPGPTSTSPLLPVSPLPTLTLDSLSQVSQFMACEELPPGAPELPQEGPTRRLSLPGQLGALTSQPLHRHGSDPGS

SMILES | hERG current change (%, negative = inhibition) at 1uM [%]
COc1ccc(N2CC(NC(=O)NCCC(C)C)CC2=O)cc1 (stereo not drawn) | 7.06
COc1ccc(Cl)cc1NC(=S)NCCN1CCOCC1 | 7.28
NC(=S)Nc1cccc2cnccc12 | 5.05
COc1ccc(CCNC(=O)COC(=O)c2cccs2)cc1OC | 13.9
Cc1ccn2c(Nc3ccccc3C)c(-c3ccccn3)nc2c1 | 12.2
CCOC(=O)c1ccccc1NC(=O)CSc1nnc(Cc2cccn2C)n1-c1ccc(F)cc1 | 1.76
COc1cccc(NS(=O)(=O)c2cc3c(cc2C)NC(=O)CO3)c1 | -14
FC(F)(F)c1cc(-c2ccco2)nc(NCc2ccccc2)n1 | 9.99
CSc1ccc(-c2nc(CN(C)C3CCOC3)c(C)o2)cc1 (stereo not drawn) | -1.74
CCCCNC(=O)/C=C1\Sc2ccccc2NC1=O | 14.9
CCOP(=O)(c1ccc(N(C)C)cc1)C(O)c1ccc(OC)cc1 (stereo not drawn) | 13
c1csc(Cn2c(-c3cccs3)nc3ccccc32)c1 | -7.81
CCC(CC(C)(C)O)C(=O)NNC(=S)Nc1ccccc1 (stereo not drawn) | 5.53
COCCNC(=O)C/C(C)=N/NC(=O)C(=O)NC1CCCCC1 | 8
COc1ccc(C(=O)NCCONC(=O)c2ccc(OC)cc2)cc1 | 3.45
Cc1ccc(OCCCCCCN2CCNCC2)cc1.O=C(O)C(=O)O | 12.6
CCCN1CN(Cc2ccco2)c2nc3ccccc3n2C1 | -19
COc1ccccc1C(=O)NCCC(=O)NN1C(=O)NC2(CCCCC2)C1=O | 37.5
CCCN1C(=O)c2cc(C(=O)Nc3ccc(OC)c(OC)c3)ccc2C1Nc1ccc(OC)c(OC)c1 (stereo not drawn) | 13.8
CC(C)CC(c1nnnn1Cc1ccc(F)cc1)N1CCC(C(N)=O)CC1 (stereo not drawn) | 3.42
COC(=O)CN1C(=O)CSc2ncccc21 | 5.78
Cc1cc(Nc2nn(C)c(N)c2C#N)ccc1F | 0.986
CCN1CCN(C(=O)COc2cc(=O)n(CC)c3ccccc23)CC1 | -1.05
Cc1cc(=O)c2ccc(C(F)(F)F)cc2[nH]1 | 17.8

SMILES | hERG current change (%, negative = inhibition) at 1uM [%]
O=C(CSc1nc2nc[nH]c2c(=O)[nH]1)NC1CCCCC1 | 3.7
CC(=O)Nc1cc(C)c(S(C)(=O)=O)c(C)c1 | 10.5
COc1cccc(CNC(=O)CCn2c(=O)oc3ccccc32)c1 | 11
[O-]c1n[n+](-c2ccc(Cl)cc2)cc2ccccc12 | 10.1
Cc1ccc(SC(C)C(=O)Nc2c(C)n(C)n(-c3ccccc3)c2=O)cc1 (stereo not drawn) | -1.87
O=C(NNC(=O)c1ccccc1Cl)c1cccnc1 | 5.99
O=C(NC1CCCCC1)c1ccc(S(=O)(=O)NCc2ccco2)cc1 | 16.7
CCCCNC(=S)N1CCC(Cc2ccccc2)CC1 | -0.89
COC(=O)C(Cc1ccc(N(CCCl)CCCl)cc1)N=Cc1ccccc1O (stereo not drawn) | 15.7
O=C(c1ccc(Cl)nc1)N1CCc2ccccc2C1 | 4.81
Cc1ccc(O)c(NC(=O)c2cc(-c3ccccc3)on2)c1 | 13.8
Cc1c(C(=O)Nc2ccccc2F)sc2ncn(CC(=O)N3CCOCC3)c(=O)c12 | 10.8
Cn1c(=O)cc(OCC(=O)N2CCC3(CC2)OCCO3)c2ccccc21 | 13.4
O=C(CN1C(=O)c2ccccc2C1=O)Nc1ccc2c(c1)OCO2 | 9.12
O=C(OCC(=O)N1CCOCC1)c1cc2ccccc2oc1=O | 6.98
CCn1c(SCC(=O)NCc2ccc3c(c2)OCO3)nc2c(c1=O)SCC2 | 10.6
COc1cc(Cl)c(C)cc1NCC(=O)Nc1cccc(S(=O)(=O)N2CCCC2)c1 | 3.43
CCNC(=O)CC1C(=O)N(c2ccc(C)cc2)C(=O)N1Cc1ccccn1 (stereo not drawn) | -10.2
CC(=O)Nc1c(-c2ccccc2)c2cc(Br)ccc2[nH]c1=O | 12.6
O=C(Nc1cccc(S(=O)(=O)NC2=NCCCCC2)c1)c1cc(-c2ccc(Cl)cc2)nc2ccccc12 | 8.83
Cc1snc(SCC(=O)c2ccc(F)cc2)c1C#N | 6.32
CC(=O)N(c1c(C)n(C)n(-c2ccccc2)c1=O)C1(C(=O)NC2CCCCC2)CCCCC1 | 4.78
CC(C)(C)NC(=O)CSc1nnnn1C(C)(C)C | 3.17
O=c1[nH][nH]cc1C=Nc1ccccc1Cl | 35.2

SMILES | hERG current change (%, negative = inhibition) at 1uM [%]
COc1cccc(/C=N/NC(=O)CCc2n[nH]c(=O)[nH]c2=O)c1O | 3.5
COC(=O)Cn1c(CN2CCN(C(=O)c3ccco3)CC2)nc2c1c(=O)n(C)c(=O)n2C | 11.1
C=C(C)C1CC=C(CN2CC(C)OC(C)C2)CC1 (stereo not drawn) | 9.43
CC12COC3(C(=O)Nc4ccccc4F)CC1CCC32C (stereo not drawn) | 7.11
CCNC(=S)N(Cc1cc2c(C)ccc(C)c2[nH]c1=O)C1CCCC1 | 14.4
CNC(=O)Cn1ncc2c(C)n(Cc3ccc(C)cc3)c(C)c2c1=O | -14
COc1ccc(C(=O)NCc2ccc(N3CCN(C)CC3)cc2)cc1 | 17.6
O=C(CC1CCC1)Nc1cccc2c([N+](=O)[O-])cccc12 | 12.8
Cc1ccc(C(=O)Nc2ccc(N3CCCC3)cc2)c(C)c1 | 2.64
COc1ccc(CNC(=O)CCC(=O)Nc2nnc(CC(C)C)s2)cc1 | 2.5
CC(=O)NC1=C(Nc2ccc(N(C)C)cc2)C(=O)c2ccccc2C1=O | 3.85
COc1ccccc1COC(=O)N/C=C/c1ccco1 | 6.75
CCC(=O)N(c1nnc(SCC(=O)Nc2ccc(N3CCOCC3)cc2)s1)C1CC1 | 16.4
Cc1ccc(C)c(NC(=O)CS(=O)(=O)c2cn(C)c3ccccc23)c1 | -1.47
O=C(Cc1ccccc1)Nc1ccc(NC(=O)c2cccc(Cl)c2)cc1 | 8.08
Cc1ccc(C)c(CSCc2nc3ccccc3[nH]2)c1 | 14.2
COc1ccc(-c2cc(=O)c3cc(O)ccc3o2)cc1 | 13.1
CCc1ccc2nc(N3CCC(C(=O)N4CCC5(CC4)OCCO5)CC3)sc2c1 | 0.983
COC(=O)c1ccc(C)c(NC(=O)CCCN2C(=O)NC(C)(C)C2=O)c1 | 11.8
CC(C)CN(CCCNC(=O)CN1N=C(c2ccc(Cl)cc2)CCC1=O)CC(C)C | 8.17
Cc1ccc(CN2CCN(Cc3cccc(OCCO)c3)CC2CCO)o1 (stereo not drawn) | 9.45
S=c1[nH]nc(-c2ccc(Cl)cc2)n1Cc1ccccc1 | 6.98
O=C(O)CCCNS(=O)(=O)c1ccccc1 | 15.3
C=CCN(Cc1nc(-c2ccccc2)no1)C(=O)c1ccc2c(c1)OCO2 | -3.24

SMILES | hERG current change (%, negative = inhibition) at 1uM [%]
[O-][n+]1onc2c1CCC(=N/O)/C2=N\Nc1ccccc1 | 12.2
CCOc1ccc(-n2cc(-c3ccccc3)c3c(=S)nc[nH]c32)cc1 | 16.5
O=C(c1ccccc1)c1nn(-c2ccc(Cl)cc2)c(=O)cc1C(F)(F)F | 11.8
COc1ccc(OC)c(NC(=O)CNC(=O)Cn2c(C)cc3ccccc3c2=O)c1 | 14.1
Cc1ccc(-c2nnc3ccc(SCC(=O)NCc4ccco4)nn23)cc1 | 4.96
O=C(CSc1ncn[nH]1)NCc1ccccc1 | 1.38
COP(=S)(OC)c1c(C)nn(CCC#N)c1NC(=O)c1ccc(Cl)cc1 | 20.9
c1cc(-c2cc3cc(N4CCOCC4)ccc3o2)cs1 | 11.6
COc1ccc(C(CNC(=O)c2ccc(NS(=O)(=O)c3ccc(F)c(C)c3)cc2)N(C)C)cc1 (stereo not drawn) | 13.6
O=C(Nc1cccc(S(=O)(=O)NC2=NCCCCC2)c1)C1COc2ccccc2O1 (stereo not drawn) | 8.71
CCc1cc2c(=O)n(CC(=O)NC3CCCCC3)cnc2s1 | 12
COCCn1c(SCC(=O)Nc2nnc(C)s2)nnc1-c1ccncc1 | -0.851
COc1ccc(NC(=O)CCNS(=O)(=O)c2ccc(NC(C)=O)cc2)cc1Cl | 15.6
CC(NC(=O)c1noc2c1CCCC2)c1ccccc1 (stereo not drawn) | 1.11
O=C1CN(C(=O)c2cc([N+](=O)[O-])ccc2Cl)C(c2ccccc2)c2cc(F)ccc2N1 (stereo not drawn) | 3.49
COc1ccc(C(=O)c2ccc([N+](=O)[O-])cc2)cc1S(=O)(=O)N1CCC(C(=O)O)CC1 | 10.2
C=CCN(CC(=O)NCc1ccccc1)C(=O)c1csnn1 | 9.02
CN(C)c1ccc(CN2CC=C(c3ccc(F)cc3)CC2)cc1 | -45.6
Cc1cc(C)cc(N(CC(=O)N/N=C/c2ccncc2)S(=O)(=O)c2ccccc2)c1 | -7.97
Cc1ccc(Cn2c(Sc3nnc(C)s3)nc3c2c(=O)[nH]c(=O)n3C)cc1 | -11.2
COc1ccc(OC)c(Nc2ncnc3c2cnn3-c2cccc(C)c2)c1 | 4.29
